Over roughly 33,000 sequences, “E-score (-0.5 to 0.5)” has its median near -0.054; the highest 2% begin near 0.35. The list shows a part of the results.
These sequences were tested against T1, Stb5 (UniProt P38699) (assay: PBM E-score (8-mer binding enrichment) (E-score (-0.5 to 0.5)); higher = stronger / more preferred TF binding; most listed sequences are background and not binding sites). Conditions: protein concentration: 200 nM; construct: GST-full length.
T1 sequence: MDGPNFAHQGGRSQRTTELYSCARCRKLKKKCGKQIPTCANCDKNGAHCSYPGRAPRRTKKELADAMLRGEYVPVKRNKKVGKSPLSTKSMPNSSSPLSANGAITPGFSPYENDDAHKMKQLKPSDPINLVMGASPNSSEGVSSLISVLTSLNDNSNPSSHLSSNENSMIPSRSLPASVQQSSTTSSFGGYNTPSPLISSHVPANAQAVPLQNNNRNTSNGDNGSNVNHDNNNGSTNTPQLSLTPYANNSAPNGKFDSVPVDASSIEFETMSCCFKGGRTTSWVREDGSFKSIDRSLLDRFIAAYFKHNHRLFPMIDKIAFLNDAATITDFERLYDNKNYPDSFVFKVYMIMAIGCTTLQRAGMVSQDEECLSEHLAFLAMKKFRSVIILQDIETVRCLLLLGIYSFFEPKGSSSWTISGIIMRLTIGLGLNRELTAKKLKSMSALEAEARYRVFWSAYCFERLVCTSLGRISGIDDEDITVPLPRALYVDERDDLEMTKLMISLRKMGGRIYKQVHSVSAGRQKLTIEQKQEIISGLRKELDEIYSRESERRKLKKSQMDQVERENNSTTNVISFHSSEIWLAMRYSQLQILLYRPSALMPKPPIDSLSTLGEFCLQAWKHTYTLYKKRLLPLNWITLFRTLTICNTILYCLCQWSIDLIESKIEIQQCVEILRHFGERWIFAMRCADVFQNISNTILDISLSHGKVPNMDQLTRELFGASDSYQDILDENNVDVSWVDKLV
Outline: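 For each ungapped eight-base word taken together with its reverse complement, the Universal PBM Analysis Suite assigned an E-score. Binding data came from GST-tagged yeast transcription factors, applied at about 100-200 nM, on universal all-10-mer Agilent arrays made double-stranded by primer extension. Fluorescent anti-GST marked bound protein, and scans were normalised with masliner.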

| Sequence | PBM E-score |
| --- | --- |
| AGGGATAT | -0.0936 |
| GTCAAACA | -0.0353 |
| CCCATGGC | -0.0738 |
| GCGTAACA | 0.0736 |
| AATTTGCA | -0.18 |
| CCGTATCC | 0.196 |
| CATGTGCC | -0.177 |
| GTCCCGTA | 0.101 |
| ATCCACGG | 0.233 |
| CACACTAC | -0.137 |
| AATTTAAC | 0.121 |
| GGCACTAC | 0.32 |
| CGATTTAG | 0.0345 |
| GCGCTAAA | 0.114 |
| GTTCGTTA | -0.16 |
| AAGTCGGT | 0.324 |
| CGGTTGAG | 0.0856 |
| ATGTGCGG | 0.143 |
| ACTATTCC | 0.155 |
| GGTACTGA | 0.0384 |
| GAGTCGCC | -0.0341 |
| ACCTTGCC | -0.0476 |

| Sequence | PBM E-score |
| --- | --- |
| ACGCCAAC | 0.0115 |
| GGCCGAGA | 0.0406 |
| TGCTGGAA | -0.143 |
| CAACACAG | -0.293 |
| GGCGTTGA | 0.0551 |
| GTTACTGA | 0.0915 |
| AACGCGTA | 0.0518 |
| AGAACACG | -0.123 |
| GATATTAC | 0.223 |
| AGCGGTGC | 0.396 |
| CGCGTTTC | -0.107 |
| CATGCAGA | -0.212 |
| AGCGGCAC | 0.355 |
| CTAGGCTA | -0.053 |
| AATCGTAT | -0.0497 |
| AGGTGTAG | -0.304 |
| GGGTAACC | 0.00382 |
| AAATATTC | -0.0591 |
| CGAGTAAA | -0.0862 |
| CCCTTGGC | -0.224 |
| AAATAGAA | 0.023 |
| GTCTGGGA | -0.23 |

| Sequence | PBM E-score |
| --- | --- |
| AATAATGT | -0.0122 |
| CACATGAC | -0.243 |
| CGAACGGA | 0.312 |
| ACAAACAT | 0.0373 |
| AAAAGCTG | -0.13 |
| GTAACGCA | -0.0529 |
| CCAGAGTC | -0.105 |
| ATGTCTTA | -0.199 |
| CCAGCTAA | -0.286 |
| ATTCAGTA | -0.0644 |
| ACACGGGT | -0.0903 |
| ACCTACAC | -0.273 |
| GACCGGCA | 0.32 |
| GTGATGAA | -0.251 |
| TCCCAAGA | -0.232 |
| GTAATGCA | -0.124 |
| CCAAGTGC | -0.117 |
| GACCCGGA | 0.228 |
| GACATGGC | -0.145 |
| CATACCCG | 0.122 |
| ACACGCCC | 0.0486 |
| GGAATCAA | -0.0513 |

| Sequence | PBM E-score |
| --- | --- |
| GAGTACAA | -0.102 |
| ATAGTGAA | -0.2 |
| CCCGAGCA | -0.166 |
| CGGACAAC | 0.144 |
| GCTGTTCA | -0.251 |
| ACAGAATA | -0.112 |
| GAATACAC | -0.0302 |
| TAGGACAA | -0.287 |
| GCAAGTGA | -0.0206 |
| AGGTTACA | -0.182 |
| CCCGTGGC | 0.127 |
| AATCCAAA | 0.0752 |
| GCCACCTA | -0.0858 |
| GTGCAGCA | -0.0174 |
| CATGGGCA | -0.0853 |
| AATTCACG | -0.237 |
| CCCCTCAA | -0.0923 |
| AAGGTGTG | -0.24 |
| GGGCTTAC | 0.338 |
| ACAGGGCT | -0.219 |

From the supplement of paper PMC3334620
